Reference: article PMC4336329 (PLoS ONE, 2015)
Screen size: about 310,000 compounds; about 2,200 (0.71%) showed an effect of 50% or more. Effects have a minus sign here. The list shows a part of the results.

The compounds below were run against human ether-à-go-go-related gene (hERG) potassium channel (human, UniProt Q12809) (assay: primary screen, population patch clamp on CHO cells stably expressing hERG).
Chain of human ether-à-go-go-related gene (hERG) potassium channel (Q12809 whole entry, looked up): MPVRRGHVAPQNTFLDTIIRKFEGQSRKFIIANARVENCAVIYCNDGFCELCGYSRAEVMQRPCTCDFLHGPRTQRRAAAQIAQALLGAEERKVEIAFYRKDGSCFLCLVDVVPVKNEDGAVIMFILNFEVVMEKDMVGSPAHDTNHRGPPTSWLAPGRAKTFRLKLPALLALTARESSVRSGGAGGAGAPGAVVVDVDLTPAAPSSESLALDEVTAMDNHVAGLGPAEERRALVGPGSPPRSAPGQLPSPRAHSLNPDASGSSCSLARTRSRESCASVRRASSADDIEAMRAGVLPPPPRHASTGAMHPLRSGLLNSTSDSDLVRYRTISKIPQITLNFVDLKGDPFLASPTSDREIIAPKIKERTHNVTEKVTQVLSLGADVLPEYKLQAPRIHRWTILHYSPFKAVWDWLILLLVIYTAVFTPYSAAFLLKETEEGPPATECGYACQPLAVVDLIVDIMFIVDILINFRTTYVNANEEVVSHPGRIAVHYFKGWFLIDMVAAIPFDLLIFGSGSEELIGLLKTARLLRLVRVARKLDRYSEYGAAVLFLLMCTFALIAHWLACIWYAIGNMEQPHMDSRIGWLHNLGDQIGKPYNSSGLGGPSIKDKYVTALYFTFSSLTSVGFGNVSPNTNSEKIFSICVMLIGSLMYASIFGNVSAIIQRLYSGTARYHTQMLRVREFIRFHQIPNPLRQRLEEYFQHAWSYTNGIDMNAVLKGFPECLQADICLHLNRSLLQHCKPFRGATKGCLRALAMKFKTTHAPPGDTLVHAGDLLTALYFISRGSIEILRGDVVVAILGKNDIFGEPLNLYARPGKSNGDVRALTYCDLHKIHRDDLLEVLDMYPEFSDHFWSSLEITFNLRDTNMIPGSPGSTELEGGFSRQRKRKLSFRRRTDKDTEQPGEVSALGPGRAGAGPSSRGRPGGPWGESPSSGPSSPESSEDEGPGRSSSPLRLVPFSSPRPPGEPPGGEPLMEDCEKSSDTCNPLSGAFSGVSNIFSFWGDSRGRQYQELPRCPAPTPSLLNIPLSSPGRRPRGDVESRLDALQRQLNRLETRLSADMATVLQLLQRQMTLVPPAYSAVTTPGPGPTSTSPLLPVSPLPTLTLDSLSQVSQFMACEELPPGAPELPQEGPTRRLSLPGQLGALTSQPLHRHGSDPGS
Fc1ccc(N/N=C/c2ccncc2)c(F)c1 was tested, and the “hERG current change (%, negative = inhibition) at 1uM” value was -1.53%.
Cc1ccc(NC(=O)CN2CCc3ccccc3C2)cc1F was tested, and the “hERG current change (%, negative = inhibition) at 1uM” value was 6.77%.
With CCN(CC)C(=O)CN1C(=O)C2CC=C(Cl)CC2C1=O (stereo not shown) the “hERG current change (%, negative = inhibition) at 1uM” value was 2.63%.
COc1ccc(/C=C2\SC(=O)N(CCNC(=O)C3CSC4(C)CCC(=O)N34)C2=O)cc1 (stereo not shown) was tested, and the “hERG current change (%, negative = inhibition) at 1uM” value was 3.29%.
With CCC(C)N1C(=O)NC(=O)C2(Cc3cc(C)ccc3N(C)C2)C1=O (stereo not shown) the “hERG current change (%, negative = inhibition) at 1uM” value was 11.7%.
For Cc1cc(=O)[nH]c(SCC(=O)NC(c2ccccc2)c2ccccc2)n1, the “hERG current change (%, negative = inhibition) at 1uM” value was 2.56%.
In the case of O=C1CSC(=S)N1/N=C/C=C/c1ccccc1, the “hERG current change (%, negative = inhibition) at 1uM” value is reported as 13.5%.
With Cc1c(C(=O)NCCS(=O)(=O)N2CCN(c3ccccc3F)CC2)cccc1[N+](=O)[O-] the “hERG current change (%, negative = inhibition) at 1uM” value was 13.7%.
In the case of O=S(=O)(Nc1nc2ccccc2nc1NCc1ccco1)c1ccc(F)cc1, the “hERG current change (%, negative = inhibition) at 1uM” value is reported as 16%.
CCn1c(O)c(N=N)c2ccccc21 was tested, and the “hERG current change (%, negative = inhibition) at 1uM” value was 11.7%.
In the case of Cc1ccc(C)c(S(=O)(=O)NCc2ccc(C(=O)N3CCN(C)CC3)cc2)c1, the “hERG current change (%, negative = inhibition) at 1uM” value is reported as 6.45%.
CC(NC(=O)c1ccco1)c1ccc2c(c1)OCCO2 (stereo not shown) was tested, and the “hERG current change (%, negative = inhibition) at 1uM” value was 14.9%.
OCC[C@@H]1C[C@@H](O)[C@H](O)[C@]2(OCc3ccccc32)O1 was tested, and the “hERG current change (%, negative = inhibition) at 1uM” value was 14.5%.
COC(=O)c1cc(=O)n(Cc2cccs2)c(=Nc2ccc(F)cc2)s1 was tested, and the “hERG current change (%, negative = inhibition) at 1uM” value was 7.23%.
COC(=O)[C@@]12CCCN1[C@H](c1ccc(-c3ccc(OC)cc3)cc1)[C@@H]1C(=O)N(C)C(=O)[C@@H]12.O=C(O)C(F)(F)F was tested, and the “hERG current change (%, negative = inhibition) at 1uM” value was 9.84%.
For CCOC(=O)c1cnc2ccc(C(=O)OC)cc2c1NCCN1CCOCC1, the “hERG current change (%, negative = inhibition) at 1uM” value was 2.7%.
In the case of CCOCCCn1c(=NC(=O)c2cccs2)c(C#N)cc2c(=O)n3ccccc3nc21, the “hERG current change (%, negative = inhibition) at 1uM” value is reported as -49.3%.
O=C(Oc1cc2oc(=O)c3c(c2cc1Cl)CCCC3)c1cccs1 was tested, and the “hERG current change (%, negative = inhibition) at 1uM” value was 16.5%.
With COc1ccc(-c2c/c(=N\c3nc(-c4ccccc4)c(C)s3)c3ccccc3o2)cc1O the “hERG current change (%, negative = inhibition) at 1uM” value was 11.9%.
For Cc1ccccc1N(CC(=O)Nc1ccccc1C(=O)NCc1ccco1)S(=O)(=O)c1ccccc1, the “hERG current change (%, negative = inhibition) at 1uM” value was 5.84%.
For CN(C)CCN(Cc1cccs1)S(=O)(=O)c1csc(C(N)=O)c1, the “hERG current change (%, negative = inhibition) at 1uM” value was 9.27%.
Cc1cc(-c2nc(C)c(-c3nnc(SCC(=O)Nc4ccccc4)n3C)s2)no1 was tested, and the “hERG current change (%, negative = inhibition) at 1uM” value was 9.64%.
With S=C(Nc1ccccc1)N1CCC(Cc2ccccc2)CC1 the “hERG current change (%, negative = inhibition) at 1uM” value was 13.1%.
In the case of O=C(COC(=O)COc1ccc(Br)cc1)NC1CCCCCC1, the “hERG current change (%, negative = inhibition) at 1uM” value is reported as 1.82%.
Cc1[nH]n(C2=NCCS2)c(=O)c1N=Nc1cccc(C(F)(F)F)c1 was tested, and the “hERG current change (%, negative = inhibition) at 1uM” value was 0.0638%.
For CNc1nc(NC)nc(-n2c(C(F)(F)F)nc3ccccc32)n1, the “hERG current change (%, negative = inhibition) at 1uM” value was 3.3%.
In the case of CC(=O)NCc1cc(-c2nn(C)c(=O)c3ccccc23)ccc1C, the “hERG current change (%, negative = inhibition) at 1uM” value is reported as 8.54%.
With CCC(C)Sc1nc(O)cc(=O)[nH]1 (stereo not shown) the “hERG current change (%, negative = inhibition) at 1uM” value was 11.4%.
O=C(c1cc(S(=O)(=O)N2CCOCC2)ccc1F)N1CCC2(CC1)OCCO2 was tested, and the “hERG current change (%, negative = inhibition) at 1uM” value was -7.67%.
With COc1ccc(CN(C)CC(O)COc2ccc(-c3ccccc3)cc2)cc1OC (stereo not shown) the “hERG current change (%, negative = inhibition) at 1uM” value was 0.124%.
O=C1/C(=C/c2ccccc2)CCCc2ccccc21 was tested, and the “hERG current change (%, negative = inhibition) at 1uM” value was 12%.
In the case of O=C(O)c1cccc(N2C(=O)c3cccc(Oc4ccc(Cl)cc4)c3C2=O)c1, the “hERG current change (%, negative = inhibition) at 1uM” value is reported as 13.3%.
COc1ccc(NC(=O)Nc2ccc(N3CCOCC3)c3nonc23)c(OC)c1 was tested, and the “hERG current change (%, negative = inhibition) at 1uM” value was 16.5%.
CCN1CCN(C(=O)c2cc(-c3ccco3)nc3ccccc23)CC1 was tested, and the “hERG current change (%, negative = inhibition) at 1uM” value was -6.15%.
In the case of Cc1cc(=O)nc2c3ccccc3n(CC(=O)NC(C)c3ccc4c(c3)OCCO4)n12 (stereo not shown), the “hERG current change (%, negative = inhibition) at 1uM” value is reported as 10.4%.
CCOc1ccccc1-n1c(SCC(=O)Nc2ccc(CC)cc2)nc2n[nH]c(C)c2c1=N was tested, and the “hERG current change (%, negative = inhibition) at 1uM” value was 9.67%.
COc1ccc(C2CC(=O)N3CN(c4ccc(C)c(Cl)c4)CSC3=C2C#N)cc1OC (stereo not shown) was tested, and the “hERG current change (%, negative = inhibition) at 1uM” value was 2.68%.
CCOC(=O)c1c(NC(=O)CN2C(=O)NC(C)(c3ccc(OC(F)F)cc3)C2=O)sc(C)c1C (stereo not shown) was tested, and the “hERG current change (%, negative = inhibition) at 1uM” value was 10.6%.
For C[C@H]1[C@H](c2ccccc2)C[C@@H](C(=O)O)C1(C)C, the “hERG current change (%, negative = inhibition) at 1uM” value was 2.81%.
For CCOC(=O)c1cc(-c2ccccc2)sc1NC(=O)C(C)OC(=O)c1cccnc1Cl (stereo not shown), the “hERG current change (%, negative = inhibition) at 1uM” value was -1.37%.
In the case of CCCCNC(=O)NCC(=O)Nc1ccc(F)c(F)c1, the “hERG current change (%, negative = inhibition) at 1uM” value is reported as 4.38%.
In the case of Clc1ccc2nc(N3CCNCC3)nc(-c3ccccc3)c2c1, the “hERG current change (%, negative = inhibition) at 1uM” value is reported as 7.08%.
With Cc1ccc(C(=O)NCCc2ccccc2)cc1N1CCCC1=O the “hERG current change (%, negative = inhibition) at 1uM” value was 24.3%.
For CCOC(=O)c1c(CC(C)C)csc1NC(=O)COC(=O)c1cc(OC)c(OC)cc1[N+](=O)[O-], the “hERG current change (%, negative = inhibition) at 1uM” value was -13.5%.
In the case of COCCn1c(SCC(=O)N2CCCCCC2)nc2c([nH]c3ccccc32)c1=O, the “hERG current change (%, negative = inhibition) at 1uM” value is reported as 8.15%.
In the case of COc1cccc(C2(C#N)CCN(C)CC2)c1, the “hERG current change (%, negative = inhibition) at 1uM” value is reported as 9.48%.
O=C(NC(Cc1ccccc1)C(=O)O)/C(=C/c1cccc([N+](=O)[O-])c1)NC(=O)c1ccco1 (stereo not shown) was tested, and the “hERG current change (%, negative = inhibition) at 1uM” value was 20.2%.
With CCOC(=O)C1=C(COc2ccccc2)NC(=O)NC1c1ccc(Cl)cc1 (stereo not shown) the “hERG current change (%, negative = inhibition) at 1uM” value was -11.1%.
For COCCn1c(-c2ccc(Cl)cc2)cnc1SCC(=O)NCc1cccs1, the “hERG current change (%, negative = inhibition) at 1uM” value was -2.15%.
In the case of CCc1ccc(C2CC(=O)Nc3c2c(=O)nc2c(C)cccn32)cc1 (stereo not shown), the “hERG current change (%, negative = inhibition) at 1uM” value is reported as 8.85%.
With O=C(CCl)Oc1ccc2occ(C(=O)c3cccs3)c2c1 the “hERG current change (%, negative = inhibition) at 1uM” value was 6.64%.
In the case of COCCNC(=O)C(OC(=O)CC1Sc2ccccc2NC1=O)c1ccncc1 (stereo not shown), the “hERG current change (%, negative = inhibition) at 1uM” value is reported as 0.268%.
O=c1[nH][nH]c(C(F)(F)F)c1C=Nc1cccc(Cl)c1 was tested, and the “hERG current change (%, negative = inhibition) at 1uM” value was 9.37%.
C=CCn1c(O)c(/C(CC)=N/NC(=S)Nc2ccccc2)c(=O)[nH]c1=O was tested, and the “hERG current change (%, negative = inhibition) at 1uM” value was 9.98%.
With Cc1ccc2ccccc2c1NC(=O)c1ccco1 the “hERG current change (%, negative = inhibition) at 1uM” value was 11%.
